Some of the results follow. Sequences were assembled here from the parent chain. Inactive controls read about 0.05.
B1: TEV protease; numbered along this chain (parent)
chain: MGESLFKGPRDYNPISSSICHLTNESDGHTTSLYGIGFGPFIITNKHLFRRNNGTLVVQSLHGVFKVKDTTTLQQHLVDGRDMIIIRMPKDFPPFPQKLKFREPQREERICLVTTNFQTKSMSSMVSDTSCTFPSGDGIFWKHWIQTKDGQCGSPLVSTRDGFIVGIHSASNFTNTNNYFTSVPKNFMELLTNQEAQQWVSGWRLNADSVLWGGHKVFMVKPEEPFQPVKEATQL

Variants of: B1
Experiment: raw area under fraction-flipped curve 0-4 h after induction (AUC4h, not background-subtracted), DNA-recorder readout of cleavage of the substrate (dimensionless); higher = more cleavage of the substrate by the protease variant
Settings: temperature: 34 °C; time window: 0-4 h after rhamnose induction
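Also: Bxb1 expression induced with 0.2% (w/v) L-rhamnose at OD600 near 0.5, cultures sampled hourly, flipped fraction per protease–substrate barcode pair counted by paired-end Illumina sequencing.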

Row | Variant | area with substrate INLYFQS | area with substrate KNLYFQS | area with substrate LNLYFQS | area with substrate MNLYFQS | area with substrate QNLYFQS | area with substrate WNLYFQS | area with substrate TNLYFQS | area with substrate PNLYFQS | area with substrate YNLYFQS | area with substrate RNLYFQS
1 | H143S | 0.0574 | 0.0455 | 0.047 | 0.0766 | 0.0791 | 0.0621 |  |  |  | 
2 | M188H | 0.0577 |  | 0.065 |  |  | 0.0613 | 0.0531 |  |  | 
3 | L205C | 0.032 |  |  |  |  | 0.0513 | 0.0634 | 0.0668 | 0.0375 | 
4 | T233A | 0.0767 |  |  |  |  | 0.071 | 0.039 | 0.0747 | 0.0643 | 
5 | D79Y |  | 0.0802 |  |  |  |  |  | 0.0741 |  | 0.0707
6 | L73A |  |  | 0.0639 |  |  | 0.0549 | 0.0522 | 0.067 | 0.0524 | 
7 | S158T |  |  | 0.0446 |  |  |  | 0.0691 |  |  | 
8 | S201F |  |  | 0.0623 |  |  |  | 0.0474 |  | 0.0529 | 
9 | G214H |  |  | 0.0496 | 0.0574 |  |  | 0.0744 | 0.0481 |  | 
10 | P94C |  |  |  | 0.0291 |  | 0.0578 | 0.0412 |  | 0.0652 | 
11 | P89G |  |  |  |  |  | 0.046 | 0.0451 |  |  | 
12 | L5S |  |  |  |  |  | 0.0534 |  | 0.0693 |  | 0.0802
13 | P228I |  |  |  |  |  |  |  | 0.0569 | 0.0693 | 0.0597

Same assay, conditions: temperature: 34 °C; time window: 0-4 h after rhamnose induction

Row | Variant | area with substrate NNLYFQS | area with substrate VNLYFQS
14 | S158T | 0.0444 | 0.0618
15 | P89G | 0.0577 | 

Reference: the supplement of paper PMC12217912
